# Experimental data taken from the supplement of paper PMC6609913.
# Structures can show the parent of a compound that is named as a salt. ± gives the standard deviation of the averaged measurements. The full ranking holds about 1,300 compounds; the median of “normalised cell viability” is about 1, and the lowest 2% start at about 0.15. Some of the results follow.
# Tested on: V-C8 + BRCA2 (BRCA2-proficient hamster cells)
# Test: normalised cell viability (fraction of plate median); higher = more viable cells (less toxic)
# Details: 5 µM
# In short: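 Library drugs, held as 10 mM stocks in DMSO, were diluted to 5 μM in 100 μl medium and added to 96-well plates of V-C8 hamster cells, either lacking BRCA2 or with BRCA2 restored, 24 h after seeding. Plates ran for 3 days (screen 1) or 6 days (screen 2), alongside solvent-only wells. Viability came from a resazurin readout, median-plate normalised, as the mean of triplicate wells.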
SMILES,normalised cell viability (treatment time: 3 days),normalised cell viability (treatment time: 6 days)
O=S(=O)(O)c1cc(O)ccc1O [Ethamsylate],0.991 ± 0.028,1.02 ± 0.048
c1ccc([C@H]2CN3CCSC3=N2)cc1 [Levamisole hydrochloride],1.02 ± 0.039,1.01 ± 0.012
CCC(=O)O[C@]1(C(=O)CCl)[C@@H](C)C[C@H]2[C@@H]3CCC4=CC(=O)C=C[C@]4(C)[C@@]3(F)[C@@H](O)C[C@@]21C [Clobetasol propionate],0.955 ± 0.027,1.06 ± 0.025
COc1ccc(C2CNC(=O)C2)cc1OC1CCCC1 (stereo not drawn) [Rolipram],0.985 ± 0.037,1.15 ± 0.22
CCCNCC(O)COc1ccccc1C(=O)CCc1ccccc1 (stereo not drawn) [Propafenone hydrochloride],0.749 ± 0.016,0.811 ± 0.05
COc1ccccc1OCC(O)CN1CCN(CC(=O)Nc2c(C)cccc2C)CC1 (stereo not drawn) [Ranolazine],1.01 ± 0.066,1.06 ± 0.04
COc1cc([C@@H]2c3cc4c(cc3[C@@H](O[C@@H]3O[C@@H]5CO[C@@H](C)O[C@H]5[C@H](O)[C@H]3O)[C@H]3COC(=O)[C@H]23)OCO4)cc(OC)c1O [Etoposide],0.141 ± 0.0097,0.15 ± 0.017
"C[C@H]1C[C@@H]2[C@H]([C@@H](O)C[C@@]3(C)[C@H]2CC[C@]3(O)C(=O)CO)[C@@]2(C)C=CC(=O)C=C12 [Methylprednisolone, 6-alpha]",1.03 ± 0.055,1.02 ± 0.045
CC(C)NCC(O)c1ccc2ccccc2c1 (stereo not drawn) [Pronethalol hydrochloride],0.972 ± 0.037,0.995 ± 0.041
Nc1nc2n[nH]nc2c(=O)[nH]1 [Azaguanine-8],0.787 ± 0.038,0.841 ± 0.081
CN(C)c1nc(N(C)C)nc(N(C)C)n1 [Altretamine],1.07 ± 0.018,0.938 ± 0.047
Cc1c(N(C)CS(=O)(=O)O)c(=O)n(-c2ccccc2)n1C [Dipyrone],0.91 ± 0.023,0.921 ± 0.066
O=c1[nH]c(=O)n(C2CCCO2)cc1F (stereo not drawn) [Tegafur],0.967 ± 0.023,1.07 ± 0.012
CC(NCCC(c1ccccc1)c1ccccc1)c1ccccc1 (stereo not drawn) [Fendiline hydrochloride],0.689 ± 0.027,0.75 ± 0.038
CCN(CC)CCc1nc(-c2ccccc2)no1 [Oxalamine citrate salt],1 ± 0.018,1.01 ± 0.03
"CC(C)NCC(O)c1ccc(O)c(O)c1 (single isomer, unassigned; (+)) [(+)-Isoproterenol (+)-bitartrate salt]",1 ± 0.048,1.05 ± 0.07
CNCC(O)c1ccc(OC(=O)C(C)(C)C)c(OC(=O)C(C)(C)C)c1 (stereo not drawn) [Dipivefrin hydrochloride],0.968 ± 0.029,0.878 ± 0.089
CC(C)NC[C@@H](O)COc1cccc2ccccc12 [(R)-Propranolol hydrochloride],1.01 ± 0.028,1.01 ± 0.056
O=c1oc2ccccc2c(O)c1Cc1c(O)c2ccccc2oc1=O [Dicumarol],1.03 ± 0.02,1.11 ± 0.12
CN1CCN(CCCN2c3ccccc3Sc3ccc(Cl)cc32)CC1 [Prochlorperazine dimaleate],0.899 ± 0.051,0.943 ± 0.092
Cc1nc(=O)c2cc(CN(C)c3ccc(C(=O)N[C@@H](CCC(=O)O)C(=O)O)s3)ccc2[nH]1 [Raltitrexed],0.357 ± 0.025,0.351 ± 0.069
C[C@H](CCC(=O)O)[C@H]1CC[C@H]2[C@@H]3[C@H](O)C[C@@H]4C[C@H](O)CC[C@]4(C)[C@H]3CC[C@]12C [Chenodiol],1.03 ± 0.068,1.12 ± 0.053
CN1CCN(c2c(F)cc3c(=O)c(C(=O)O)cn(CCF)c3c2F)CC1 [Fleroxacin],1 ± 0.047,1.01 ± 0.019

SMILES,normalised cell viability (treatment time: 3 days),normalised cell viability (treatment time: 6 days)
NNc1nncc2ccccc12 [Hydralazine hydrochloride],1.02 ± 0.021,0.971 ± 0.065
CC(=O)OCC(CCn1cnc2cnc(N)nc21)COC(C)=O [Famciclovir],1.02 ± 0.012,1.006 ± 0.0063
COc1c2occc2c(OC)c2c(=O)cc(C)oc12 [Khellin],1.015 ± 0.01,1.07 ± 0.11
Nc1cc(C(Cl)=C(Cl)Cl)c(S(N)(=O)=O)cc1S(N)(=O)=O [Clorsulon],1.02 ± 0.07,1.09 ± 0.025
CC[C@H](C)C(=O)O[C@H]1CCC=C2C=C[C@H](C)[C@H](CC[C@@H]3C[C@@H](O)CC(=O)O3)[C@H]21 [Mevastatin],0.246 ± 0.0034,0.23 ± 0.011
CO[C@@H]1[C@@H](OC(N)=O)[C@@H](O)[C@H](Oc2ccc3c(O)c(NC(=O)c4ccc(O)c(CC=C(C)C)c4)c(=O)oc3c2C)OC1(C)C [Novobiocin sodium salt],1.05 ± 0.076,1.03 ± 0.061
CCN1CCN(C(=O)N[C@@H](C(=O)N[C@@H]2C(=O)N3[C@@H]2SC(C)(C)[C@@H]3C(=O)O)c2ccccc2)C(=O)C1=O [Piperacillin sodium salt],1.11 ± 0.055,1.04 ± 0.1
CCCC(=O)Nc1ncnc2c1ncn2[C@@H]1O[C@@H]2COP(=O)(O)O[C@H]2[C@H]1OC(=O)CCC [Bucladesine sodium salt],1 ± 0.021,1.04 ± 0.019
CN(C)CCC[C@@]1(c2ccc(F)cc2)OCc2cc(C#N)ccc21 [Escitalopram],1.1 ± 0.041,1.01 ± 0.067
CN1CCCC(n2nc(Cc3ccc(Cl)cc3)c3ccccc3c2=O)CC1 (stereo not drawn) [Azelastine HCl],0.946 ± 0.029,1.02 ± 0.051
CN1CCCCC1CCN1c2ccccc2Sc2ccc([S+](C)[O-])cc21 (stereo not drawn) [Mesoridazine besylate],1.028 ± 0.0076,1.08 ± 0.046
NC(=O)N/N=C/c1ccc([N+](=O)[O-])o1 [Nitrofural],0.873 ± 0.01,0.862 ± 0.033
CC(=O)Oc1cccc2c1C(=O)c1c(OC(C)=O)cc(C(=O)O)cc1C2=O [Diacerein],0.749 ± 0.038,0.796 ± 0.027
C=C1C[C@H]2[C@@H]3C=C(C)C4=CC(=O)CC[C@]4(C)[C@H]3CC[C@]2(C)[C@@]1(OC(C)=O)C(C)=O [Melengestrol acetate],1.04 ± 0.043,1.03 ± 0.054
OC[C@H]1O[C@@H](Oc2ccc(O)cc2)[C@H](O)[C@@H](O)[C@@H]1O [Arbutin],1.02 ± 0.05,0.979 ± 0.024
Nc1ccc(S(=O)(=O)c2ccc(N)cc2)cc1 [Dapsone],1.11 ± 0.035,1.098 ± 0.0059
CN(C)CCc1c[nH]c2ccc(Cn3cncn3)cc12 [Rizatriptan benzoate],0.999 ± 0.043,1.04 ± 0.05
OCCN1CCN(CCCN2c3ccccc3Sc3ccc(Cl)cc32)CC1 [Perphenazine],1.03 ± 0.028,0.655 ± 0.39
CC1(C)OC(=O)NC1=O [Dimethadione],1.08 ± 0.064,0.964 ± 0.043
N=C(N)NCC1COC2(CCCCC2)O1 (stereo not drawn) [Guanadrel sulfate],1.06 ± 0.038,1.03 ± 0.041
CCC[C@H](N[C@@H](C)C(=O)N1[C@H](C(=O)O)C[C@@H]2CCCC[C@@H]21)C(=O)OCC [Perindopril],1.02 ± 0.021,1.05 ± 0.1
Cn1nnnc1SCC1=C(C(=O)O)N2C(=O)[C@@H](NC(=O)[C@H](O)c3ccccc3)[C@H]2SC1 [Cefamandole sodium salt],1.07 ± 0.029,1.06 ± 0.1
COc1ccc(NS(=O)(=O)c2ccc(N)cc2)nn1 [Sulfamethoxypyridazine],0.879 ± 0.062,0.892 ± 0.069

SMILES,normalised cell viability (treatment time: 3 days),normalised cell viability (treatment time: 6 days)
Nc1ccc(C(=O)NCC(=O)O)cc1 [Aminohippuric acid],1.04 ± 0.027,1.11 ± 0.076
CCN(CC)CCNC(=O)c1cc(S(C)(=O)=O)ccc1OC [Tiapride hydrochloride],1.02 ± 0.032,1.01 ± 0.045
O=C(CCCN1CC=C(n2c(=O)[nH]c3ccccc32)CC1)c1ccc(F)cc1 [Droperidol],1.05 ± 0.013,1.07 ± 0.015
C#CCN(C)Cc1ccccc1 [Pargyline hydrochloride],0.961 ± 0.019,1.01 ± 0.034
COc1ccc2cc(CCC(C)=O)ccc2c1 [Nabumetone],1.05 ± 0.12,1.02 ± 0.044
CCn1cc(C(=O)O)c(=O)c2ccc(C)nc21 [Nalidixic acid sodium salt],1.05 ± 0.021,0.999 ± 0.035
Cc1ccc(S(=O)(=O)NC(=O)NN2CC3CCCC3C2)cc1 (stereo not drawn) [Gliclazide],1.04 ± 0.059,1.05 ± 0.059
CC(=O)N[C@@H](CC(=O)N[C@@H](CCC(=O)O)C(=O)O)C(=O)O [Spaglumic acid],1.06 ± 0.04,1.1 ± 0.091
CCn1cc(C(=O)O)c(=O)c2cnc(N3CCNCC3)nc21 [Pipemidic acid],0.998 ± 0.024,1.12 ± 0.07
COc1cc2nc(N3CCN(C(=O)c4ccco4)CC3)nc(N)c2cc1OC [Prazosin hydrochloride],1.03 ± 0.011,0.883 ± 0.022
COc1nc(C)nc(Cl)c1NC1=NCCN1 [Moxonidine],1.014 ± 0.0037,0.9963 ± 0.0028
Cc1ccc(C(=O)c2cc(O)c(O)c([N+](=O)[O-])c2)cc1 [Tolcapone],0.954 ± 0.035,1.06 ± 0.028
NC[C@H]1O[C@H](O[C@H]2[C@H](O[C@@H]3O[C@H](CO)[C@@H](O)[C@H]3O)[C@@H](O)[C@H](N)C[C@@H]2N)[C@H](N)[C@@H](O)[C@@H]1O [Ribostamycin sulfate salt],1.05 ± 0.03,1.02 ± 0.097
COc1ccc2[nH]cc(CCNC(C)=O)c2c1 [Melatonin],1.22 ± 0.097,0.928 ± 0.048
COc1ccc(C(=O)NCc2cccnc2)cc1C(=O)NCc1cccnc1 [Picotamide monohydrate],1.12 ± 0.059,1.13 ± 0.067
O=C(NCCNCC(O)COc1ccc(O)cc1)N1CCOCC1 (stereo not drawn) [Xamoterol hemifumarate],1.02 ± 0.044,1.25 ± 0.17
CCN(Cc1ccncc1)C(=O)C(CO)c1ccccc1 (stereo not drawn) [Tropicamide],1.065 ± 0.0083,1.01 ± 0.043
CN(C)CCOC1=Cc2ccccc2Sc2ccc(Cl)cc21 [Zotepine],0.591 ± 0.05,0.679 ± 0.027
OC(CCN1CCCCC1)(c1ccccc1)C1CC2C=CC1C2 (stereo not drawn) [Biperiden hydrochloride],0.993 ± 0.031,1.01 ± 0.062
CCN(CC)CC#CCOC(=O)C(O)(c1ccccc1)C1CCCCC1 (stereo not drawn) [Oxybutynin chloride],1.07 ± 0.047,1.02 ± 0.031
Cc1ncc([N+](=O)[O-])n1CCO [Metronidazole],0.893 ± 0.04,1.02 ± 0.032
CN1C2CCCC1CC(NC(=O)c1nn(C)c3ccccc13)C2 (stereo not drawn) [Granisetron],1.03 ± 0.036,1.01 ± 0.017
CC(C)N1CCN(c2ccc(OCC3COC(Cn4cncn4)(c4ccc(Cl)cc4Cl)O3)cc2)CC1 (stereo not drawn) [Terconazole],1.26 ± 0.035,1.3 ± 0.11
